# Results published in patent publication US20220267402A1 (SERPENTIDE, published 2022).
# Biological target: human GLP1 receptor (on HEK293-CNG-HuGLP1R stable cells) (human, UniProt P43220 24-463)
# Assay: cell-based or functional assay
row,"EC50, cAMP bioassay on HEK293-CNG-HuGLP1R cells (after Factor Xa predigestion) [nM]",Binder
1,26.9,p11: hGLP1R ECD(R108G)-3xG4S-RKR-Trulicity (lot#U2243DL14024/P9EA001) (Fc fusion) RPQGATVSLWETVQKWREYRRQCQRSLTEDPPPATDLFCNRTFDEYACWPDGEPGSFVNVSCPWYLPWASSVPQGHVYRFCTAEGLWLQKDNSSLPWRDLSECEESKGGERSSPEEGGGGSGGGGSGGGGSRKRHGEGTFTSDVSSYLEEQAAKEFIAWLVKGGGGGGGSGGGGSGGGGSA[omitted - human IgG4 Fc with S228P F234A L235A (EU numbers)]
2,120,p10: hGLP1R ECD(R108G)-3xG4S-RR-Trulicity (lot#U2243DL140-19/P9EA001) (Fc fusion) RPQGATVSLWETVQKWREYRRQCQRSLTEDPPPATDLFCNRTFDEYACWPDGEPGSFVNVSCPWYLPWASSVPQGHVYRFCTAEGLWLQKDNSSLPWRDLSECEESKGGERSSPEEGGGGSGGGGSGGGGSRRHGEGTFTSDVSSYLEEQAAKEFIAWLVKGGGGGGGSGGGGSGGGGSA[omitted - human IgG4 Fc with S228P F234A L235A (EU numbers)]
3,617,pTG3: hGLP1R ECD-3xG4S-RKRR-Trulicity (lot#U5585DH140S05/P90011809) (Fc fusion) RPQGATVSLWETVQKWREYRRQCQRSLTEDPPPATDLFCNRTFDEYACWPDGEPGSFVNVSCPWYLPWASSVPQGHVYRFCTAEGLWLQKDNSSLPWRDLSECEESKRGERSSPEEGGGGSGGGGSGGGGSRKRRHGEGTFTSDVSSYLEEQAAKEFIAWLVKGGGGGGGSGGGGSGGGGSA[omitted - human IgG4 Fc with S228P F234A L235A (EU numbers)]
4,25,p7: hGLP1R ECD(R108G)-3xG4S-RGER-Trulicity (lot#U2243DL140-4/P9EA001) (Fc fusion) RPQGATVSLWETVQKWREYRRQCQRSLTEDPPPATDLFCNRTFDEYACWPDGEPGSFVNVSCPWYLPWASSVPQGHVYRFCTAEGLWLQKDNSSLPWRDLSECEESKGGERSSPEEGGGGSGGGGSGGGGSRGERHGEGTFTSDVSSYLEEQAAKEFIAWLVKGGGGGGGSGGGGSGGGGSA[omitted - human IgG4 Fc with S228P F234A L235A (EU numbers)]
